Test results reported in PubChem BioAssay AID488969 (Vanderbilt High Throughput Screening Facility, 2010).
Whole data set: some 110,000 compounds, median “z-score” near -0.1, cut for the highest 2% near 2. Some of the results follow. The source made the active and inactive calls.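 Rule for the calls: active = z-score in the third read window above 3 or below -3; inactive = the rest.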

Molecular target: Metabotropic glutamate receptor 8 (Rattus norvegicus) (UniProt P70579)
Assay: mGluR8 Gi/Go-coupled signaling modulation – cell-based, rat, thallium flux, HTS, primary screen (AID 488969)
Conditions: HEK293 rat mGluR8, GIRK (G protein-gated inwardly rectifying potassium channel) thallium flux, FluoZin2; at 10 µM; stronger effect = higher value; submaximal glutamate (EC20) added with thallium

Sequence of UniProt P70579 (P70579 whole entry, looked up): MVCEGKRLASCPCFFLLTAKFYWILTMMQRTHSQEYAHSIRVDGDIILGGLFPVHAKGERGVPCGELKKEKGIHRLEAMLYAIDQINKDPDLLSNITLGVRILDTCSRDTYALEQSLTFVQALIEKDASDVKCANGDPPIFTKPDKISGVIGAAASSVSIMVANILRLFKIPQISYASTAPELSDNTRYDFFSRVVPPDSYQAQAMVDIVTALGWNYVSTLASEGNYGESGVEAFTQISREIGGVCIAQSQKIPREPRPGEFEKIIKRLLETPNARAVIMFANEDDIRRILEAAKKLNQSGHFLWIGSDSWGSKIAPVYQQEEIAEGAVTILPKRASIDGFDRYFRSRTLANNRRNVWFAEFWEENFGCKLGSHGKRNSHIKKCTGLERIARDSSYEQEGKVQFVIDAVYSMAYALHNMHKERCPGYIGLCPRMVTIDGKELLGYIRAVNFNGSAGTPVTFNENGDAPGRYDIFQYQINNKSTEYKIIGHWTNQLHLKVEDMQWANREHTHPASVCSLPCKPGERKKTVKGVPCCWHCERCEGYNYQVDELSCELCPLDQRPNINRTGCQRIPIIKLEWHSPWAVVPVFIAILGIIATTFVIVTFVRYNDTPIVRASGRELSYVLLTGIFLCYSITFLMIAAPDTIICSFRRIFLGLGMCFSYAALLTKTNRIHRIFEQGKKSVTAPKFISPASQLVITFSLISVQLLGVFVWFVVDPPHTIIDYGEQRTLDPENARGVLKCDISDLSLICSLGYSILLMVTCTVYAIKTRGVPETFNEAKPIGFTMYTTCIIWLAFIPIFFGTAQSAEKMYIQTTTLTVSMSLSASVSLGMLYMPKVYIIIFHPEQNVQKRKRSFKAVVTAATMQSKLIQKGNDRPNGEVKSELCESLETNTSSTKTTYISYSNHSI

Point of comparison: O=C(Cn1c(=O)n(Cc2ccco2)c(=O)c2c3c(sc21)CCCCC3)c1ccccc1, z-score -0.0852. Against it:
- COc1cc(C)c(S(=O)(=O)NCc2cccs2)cc1C — lower, -1.12
- O=C(NCCc1ccccc1)C(=O)NCC1(c2ccccc2)CCCC1 — higher, 0.119
- O=C(Nc1nc2ccccc2s1)C1CCCN1S(=O)(=O)c1ccc(Cl)cc1 (centres undefined) — lower, -0.802
- COc1ccc(-c2nc(Cn3c(SCc4ccc(C)cc4)nc4ccncc43)c(C)o2)cc1OC — higher, -0.0367
- CN(C)c1nc(-c2ccc([N+](=O)[O-])cc2)cs1 — lower, -0.235
- CC(=O)NC(CC(=O)NC12CC3CC(CC(C3)C1)C2)c1ccccc1 (centres undefined) — higher, 0.359
- O=C(OCCCN=C1NS(=O)(=O)c2ccccc21)c1ccccc1F — lower, -1.1
- CCOC(=O)CS(=O)(=O)c1ccc2ccccc2c1 — higher, -0.0129
- O=C1C(Cl)=C(Nc2ccc(F)cc2)C(=O)N1CCc1ccccc1 — higher, 0.0827
- Cc1ccc(C(=O)Oc2oc(-c3ccccc3)nc2C=Nc2ccc(N(C)C)cc2)cc1 — lower, -0.144
- CO/N=C/NC(=O)Cc1cn(-c2ncc(C(F)(F)F)cc2Cl)c2ccccc12 — higher, 0.465
- COc1cc2c(cc1NC(C)=O)CCCC2 — higher, 0.172
- Cc1cc2nc(SCC(=O)O)nc(C)c2cc1C — lower, -1.5
- O=S(=O)(NCCSCc1ccc(Cl)c(Cl)c1)c1ccc2c(c1)OCCO2 — higher, 0.0986
- CC(C)CCNC(=O)CN(Cc1ccc2c(c1)OCO2)C(=O)CCC(=O)Nc1ccccn1 — lower, -0.101
- COc1cccc(/C=N/Nc2ncnc3scc(-c4ccccc4)c23)c1OC — lower, -0.779
- Cc1ccc(S(=O)(=O)N2CCN(S(=O)(=O)c3ccccc3)C2c2ccc(N(C)C)cc2)cc1 (centres undefined) — higher, 1.77
- Cc1ccc(Cn2nnc3c(=O)n(CC(=O)NCc4ccco4)cnc32)cc1 — lower, -0.66
- CC(NC(N)=O)C12CC3CC(CC(C3)C1)C2 (centres undefined) — lower, -0.205
- Cc1c(Br)cc(C(=O)NCCCN2CCOCC2)c(C)c1C — higher, 0.355
- O=C(CCc1ccccc1)c1ccc2c(c1)OCCCO2 — higher, -0.00374
- COc1ccc(CC(=O)NNc2ncnc3c2cnn3C)cc1OC — lower, -0.136
- CC(=O)NCCOC(=O)Nc1sc(=S)n(C)c1C — higher, -0.0717
- Clc1nc2ccccc2cc1/C=N/Nc1nc2ccccc2[nH]1 — higher, 0.246
- CCCCN(CCCC)CC(O)COc1ccccc1Br (centres undefined) — higher, 0.637
- COc1ccc(OC)c2c(C)cc(N3CCN(C(=O)c4ccc(F)cc4)CC3)nc12 — lower, -0.195
- CCCNC(=O)NC1C(NC(=O)NCCC)N(C)C(=O)N1C (centres undefined) — higher, 0.382
- Clc1ccc(-c2csc(N3CCc4ccccc4C3)n2)cc1 — higher, -0.0364
- C=CCc1c(C)nc(SCC(=C)C)[nH]c1=O — lower, -0.25
- COc1cc(OC)cc(C(=O)NC(=S)Nc2ccc(Cl)c(C(=O)O)c2)c1 — higher, 0.157
- Cc1ccc(OCC(=O)N/N=C2\CCOc3c(C)cccc32)cc1 — higher, 0.136
- O=C(COc1ccccc1)Nc1cc(C(F)(F)F)ccc1N1CCCC1 — lower, -0.434
- CC(O)CNCCNCc1c(OCc2ccccc2)ccc2ccccc12 (centres undefined) — higher, 0.624
- O=c1c2ccccc2nc2n1C1(CCCCC1)Cc1ccccc1-2 — higher, 0.0895
- CCCN1C(=O)C(NC(=O)c2ccncc2)(C(F)(F)F)C2=C1CC(C)(C)CC2=O (centres undefined) — lower, -0.391
- CCOC(=O)C(/C(C)=N/NC(=O)c1ccccc1[N+](=O)[O-])C(C)C (centres undefined) — higher, 0.0757
- CCOc1ccc(S(=O)(=O)NCC2CCCO2)c2cccnc12 (centres undefined) — higher, 0.118
- O=C1CC(C(=O)O)C2(CCCC2)O1 (centres undefined) — higher, -0.0157
- COc1ccc(C)cc1S(=O)(=O)N(C)CC(=O)NC1CCCCC1 — lower, -0.723
- O=C1c2ccccc2-c2c1cccc2C(=O)N1CCOCC1 — lower, -0.0895
- COc1nc(N2CCOCC2)nc(-n2cccc2)n1 — higher, 0.0234
- CCC(Sc1nc2c(c(=O)n1CC)SC(C)C2)C(=O)OC (centres undefined) — lower, -0.966
- OC(CSc1ccccc1Cl)CN1CCN(c2ccccc2F)CC1 (centres undefined) — lower, -0.478
- COc1ccc(CNC(=O)COC(=O)CC2CCCC2)cc1 — lower, -0.194
- Cc1ccc(NC(=O)CC2C(=O)OCC3CCCCN32)cc1Cl (centres undefined) — lower, -0.276
- O=C(Cn1cnc2c(nnn2-c2ccccc2)c1=O)NCc1ccco1 — higher, 0.628
- COc1ccc(C2NC(=O)NC(C)=C2C(C)=O)cc1 (centres undefined) — lower, -0.186
- CC1CCCC(NC(=O)CSc2nnnn2C)C1C (centres undefined) — higher, 0.0873
- COc1ccc(C2=C(CC(=O)O)C(=O)CC2)cc1 — higher, 0.0932
- c1ccc2oc(SCc3cn4ccccc4n3)nc2c1 — higher, -0.00786
- CCN(CC)C(=O)C1CC(=O)N(c2ccc(OC)cc2)C1c1ccc(OC)cc1 (centres undefined) — lower, -0.282
- COc1ccc(OCC(O)CNC(=O)Nc2ccc(Cl)cc2)cc1 (centres undefined) — lower, -0.208
- CC(=O)c1cccc(NC(=O)c2cccc(S(=O)(=O)N(C)C)c2)c1 — higher, -0.0832
- CC1CCN(C(=O)Cn2c(=O)n(Cc3ccc4c(c3)OCO4)c(=O)c3ccccc32)CC1 — lower, -1.65
- N#Cc1c(-c2ccccc2F)cc(-c2cccnc2)nc1N — lower, -0.583
- Cc1oc2cc(OC(C)C(=O)O)ccc2c(=O)c1Oc1ccccc1 (centres undefined) — higher, 0.256
- O=C1C(N2CCOCC2)=C(n2nnc3ccccc32)C(=O)c2ccccc21 — lower, -0.718
- FC(F)(F)c1nnc(-c2ccccc2)nc1N1CCOCC1 — lower, -0.768
- CC(C)NC(=O)c1ccc2c(c1)N(CC(=O)N1CCOCC1)C(=O)C(C)(C)O2 — lower, -0.39
- Cc1ccc2c(c1)[C@H]1OCC[C@H]1[C@@H](c1ccncc1)N2 — higher, -0.0601
- CCOC(=O)C1=C(C)N=C2SCCC(=O)N2C1c1cc(Br)ccc1OC (centres undefined) — lower, -0.383
- O=C(CSc1ccc(Cl)cc1)Nc1ccc(N2CCN(C(=O)c3ccco3)CC2)cc1 — higher, -0.0566
- CC(C)(C(=O)c1ccccc1)/[N+]([O-])=C/c1ccc(Br)cc1 — lower, -0.159
- CC1OC(Nc2ccc(OC(F)(F)F)cc2)C(O)C(O)C1O (centres undefined) — higher, 0.913
- O=C1CC(c2cccs2)Sc2nc3ccccc3n21 (centres undefined) — higher, 1.16
- COc1ccc(-c2cn3c(C)c(C(=O)N4CCN(c5ccc(F)cc5)CC4)sc3n2)cc1 — higher, 0.116
- CC(C)=CC(=O)OCC(=O)Nc1cc([N+](=O)[O-])ccc1F — higher, 0.591
- O=c1c(-c2ccnn2-c2ccccc2F)cnc2n1CCS2 — higher, -0.0779
- CC(C)(C)NC(=O)COC(=O)c1nsc(Cl)c1Cl — lower, -0.147
- Cc1ccc2c(CC(=O)OCc3cc(=O)n4c(n3)sc3ccccc34)coc2c1 — higher, -0.0698
- Cc1cc(/C=C2\SC(N)=NC2=O)c(C)n1-c1ccccc1 — lower, -0.446
- COc1cccc(NC(=O)c2cc(CN3C(=O)c4ccccc4C3=O)ccc2OC)c1 — lower, -0.315
- COc1cc(OC)cc(C(=O)NC(=S)NCCc2ccccc2)c1 — higher, 2.08
- COc1ccc(CC(=O)N2N=C(C)CC2(O)c2cccnc2)cc1OC (centres undefined) — lower, -0.219
- CC(=O)NCC(=O)OCC(=O)c1ccc(C)cc1 — higher, 0.0311
- Cc1cc(O)c(C(C)C)cc1NC(=O)c1ccc(Cl)cc1 — higher, 0.074
- COc1ccc2cc(CN(CCO)C(=O)c3ccc(Br)cc3)c(=O)[nH]c2c1 — lower, -0.235
- COc1ccc(S(=O)(=O)Cc2ccc(C(=O)N3CCN(c4ccc(Cl)cc4)CC3)o2)cc1 — lower, -0.315
- Cc1nn(Cc2ccc(Cl)cc2Cl)c(C)c1NC(=O)c1nn(C)cc1Cl — lower, -0.412
- CNCCCOc1ccc(C)cc1Br — higher, 0.0215
- Cc1sc2ncnc(NCC3COc4ccccc4O3)c2c1C (centres undefined) — lower, -1.48
- COc1ccc(NC(=O)c2cc(Cl)ccc2NC(=O)c2ccco2)c(OC)c1 — higher, 0.354
- COc1ccc2[nH]c(=O)c(CN(C)C(=O)C3CCCCC3)cc2c1 — higher, -0.073
- COCCn1c(C)cc(C(=O)COC(=O)CCc2ccc(S(=O)(=O)N3CCOCC3)cc2)c1C — higher, 0.0411
- O=C(CSc1nc2ccccc2s1)N1c2ccccc2Sc2ccc(Cl)cc21 — lower, -0.287
- CCOC(=O)c1cccc(N2C(=O)c3ccccc3S2(=O)=O)c1 — lower, -0.275
- CC1=C(C(=O)OCc2ccccc2)C(c2ccoc2)C(C#N)=C(N)O1 (centres undefined) — lower, -0.711
- Cc1nnsc1C(=O)Nc1ccc(Cl)cc1 — higher, 0.311
- Nc1nc(N)nc(-c2ccc(Cl)cc2)n1 — lower, -0.21
- O=C(CSc1nc2ccccc2o1)Nc1ccc(N2CCOCC2)cc1 — higher, 0.561
- COc1ccccc1C(c1nnnn1Cc1ccccc1)N1CCC(C(N)=O)CC1 (centres undefined) — lower, -0.532
- COc1ccc(N2CCN(C(=O)CSc3ncnc4scc(-c5ccc(C)cc5)c34)CC2)cc1 — lower, -0.142
- O=C(CCSCc1ccccc1Cl)N1CCN(c2ccccn2)CC1 — lower, -0.486
- Cc1ccc(SCCC(=O)N(C)C)cc1 — higher, -0.0717
- Cc1cccc(NC(=O)NCC(c2cccnc2)N2CCOCC2)c1 (centres undefined) — lower, -0.216
- COCCn1c(=O)[nH]c(=O)c2cc(C(=O)c3cc(OC)ccc3O)cnc21 — lower, -0.409
- Cc1ccc(-n2[nH]c(C)c(/C=N/n3c(C)nc4ccccc4c3=O)c2=O)cc1 — higher, 0.177
- Cc1oc(-c2cccs2)[n+]([O-])c1C — higher, 0.125
- O=C(O)CCCCCn1c(SCC(=O)N2CCCC2)nc2ccsc2c1=O — lower, -0.486
- CCC(=O)Nc1ccc(N2CCN(Cc3ccccc3)CC2)cc1 — higher, 0.042
- COc1ccc(-c2noc(-c3ccccc3C(=O)N3CCOCC3)n2)cc1 — higher, 0.106
- CCC(=O)N1c2ccccc2NC2=C(C(=O)CCC2)C1c1ccc(N(C)C)cc1 (centres undefined) — higher, 0.0529
- COc1cc(/C=C/C(C)=O)cc(OC)c1OC — higher, -0.0769
- C=C(Br)CN1CCN(CC(=C)Br)CC1 — higher, 0.307
- CN(C)c1nc(C(=O)Nc2ccccc2)nc(N(C)C)n1 — higher, -0.064
- CC(=O)CCC(=O)c1ccc2ccccc2c1 — higher, -0.0483
- CCSC1=C(C#N)C(c2cccc(O)c2)CC(=O)N1 (centres undefined) — lower, -0.424
- N/C(Cc1cccs1)=N\OC(=O)COc1ccc(Cl)cc1Cl — lower, -0.23
- Cn1cc(SCC(=O)N2CCOCC2)c2ccccc21 — lower, -0.146
- COC(=O)c1[nH]c2cc(OC)ccc2c1NC(=O)CCN1CCSCC1 — lower, -0.128
- CCOC(=O)Cn1nnnc1CN(Cc1ccc(OC)cc1)Cc1cc2cc(C)ccc2[nH]c1=O — higher, 1.32
- COC(=O)c1ccccc1NC(=O)CN(C)S(=O)(=O)c1ccc(OC)c(C)c1 — higher, -0.0547

In the case of S=C(NCc1ccco1)Nc1ccc(Cl)c(Cl)c1, the z-score is reported as active: 8.32.
